Measurements reported in the RNAGym collection of RNA variant scans (doi:10.7554/elife.90254).
The source gives no read counts; variants with many changes may rest on few reads.

B1: LINE1-mini (parent)
chain: GGCAGAGCUCAACACAGCGUGGCAAAGUGGCUGUGGCUAGACUGCC

Variants of: B1
Test: self-cleavage, relative activity (ratio to wild type); higher = more cleavage; in vitro, sequencing; the parent is a self-cleaving ribozyme

Question: With GGCGGAGCUCAGCACAGCGUGGAAAAGUCGCUGUGGAUAGACUGCC [A4G A12G C23A G29C C37A] as the variant, how does the self-cleavage read?
Answer: 0.26

Question: With GGCCGAGCUCAACACACCGUGGCAAAAUGGCUGUGGCUAGACCGCC [A4C G17C G27A U43C] as the variant, how does the self-cleavage read?
Answer: 0.03

Question: For GGCGGAGCUCAACACAGCGUGGCAAAGUGGCUGUGGCUAGGCCGUC [A4G A41G U43C C45U], which self-cleavage is on record?
Answer: 0.03

Question: With GGCGGAGCUCAACACAGCGUGGCUAAGUGGCCGUGGCUAGACUGCC [A4G A24U U32C] as the variant, how does the self-cleavage read?
Answer: 0

Question: For GGCGGAGAUCAACACAGCGUGGCAAAGUGGCUGUGGCUACACUGCC [A4G C8A G40C], which self-cleavage is on record?
Answer: 0.17

Question: With GGCCGAGCUCAACACAGCGUGGCAAAGUGGCUAUGGCGAGACUUCC [A4C G33A U38G G44U] as the variant, how does the self-cleavage read?
Answer: 0.08

Question: With GGCGGAGCUCACCACAGCGUGGCAAAGUGGCUGUGGCUAGACUGCA [A4G A12C C46A] as the variant, how does the self-cleavage read?
Answer: 0.01

Question: For GGCGGAGAUCAACACAGCGUGGCAAUGUGGCUGUGGCUAGACUGCC [A4G C8A A26U], which self-cleavage is on record?
Answer: 0.84

Question: For GGCCGAGCUCAACACAGCGUGGCAAAGUGGCUGUGGCAAGGCUGCC [A4C U38A A41G], which self-cleavage is on record?
Answer: 0.07

Question: Which self-cleavage does the source give for GGCCGAGCUCAACACAGCGUGGCAAAGUGUCUCUGGCUAGACUGCC [A4C G30U G33C] here?
Answer: 0.36

Question: With GGCCGAGCUCAACACAGCGUGGCAAACGGGCUGUGUAUAGACCGCC [A4C G27C U28G G36U C37A U43C] as the variant, how does the self-cleavage read?
Answer: 0.01

Question: With GGCCGAGCUCAACACAUCGUGGCAAACUGGCUGUGGGUAGAUUGCC [A4C G17U G27C C37G C42U] as the variant, how does the self-cleavage read?
Answer: 0.01

Question: With GGCCGAUCUCAACAUAGCGGGGCAAAGUGGCUGUGGCUCGACUGCC [A4C G7U C15U U20G A39C] as the variant, how does the self-cleavage read?
Answer: 0.25

Question: Which self-cleavage does the source give for GGCGGAGCUCAACACCGCGUGGCAAACUGGCUGUGGCUAGACUGCC [A4G A16C G27C] here?
Answer: 0.02

Question: For GGCCGAGCUCAACACAGCGUCGCAAAGUGGCUGUGGCGAGACUGCC [A4C G21C U38G], which self-cleavage is on record?
Answer: 0.02

Question: Which self-cleavage does the source give for GGCCGAUCUCAACACACCGUGGCAAAUUGGCGGUGGCUGGACUGCC [A4C G7U G17C G27U U32G A39G] here?
Answer: 0.09

Question: For GGCCGAGCUCAACACAGCGCGGCAAAGUGGCUCUGGCUAGACUGCC [A4C U20C G33C], which self-cleavage is on record?
Answer: 0.16

Question: For GGCCGAGCUCAACACAGCGUUACAAAGUGGCUGUUGCUAGACUGCC [A4C G21U G22A G35U], which self-cleavage is on record?
Answer: 0.19

Question: For GGCCGAGCUCAACACAGCGUAGCAAAGUGGCUGUGGCUAGACUGAC [A4C G21A C45A], which self-cleavage is on record?
Answer: 0.67

Question: Which self-cleavage does the source give for GGCCGAGCUCAACACAGCGUGGCAAAGUGGCUGUGUCUGGACUCCC [A4C G36U A39G G44C] here?
Answer: 0.12

Question: Which self-cleavage does the source give for GGCCGAGCGUAACACAACGGGGCAAACUGGCUGUGGCUAGACUGCC [A4C U9G C10U G17A U20G G27C] here?
Answer: 0.05

Question: For GGCGGAGCUCAACACAGCGUGGCAAAGUGGCUGUGGCUGGACUGUU [A4G A39G C45U C46U], which self-cleavage is on record?
Answer: 0.13

Question: With GGCCGAGCUCAACACAUCGUGGCAAAGUGGCUGUGGCUAAACUGCC [A4C G17U G40A] as the variant, how does the self-cleavage read?
Answer: 0.08

Question: With GGCGGAGCUCAACACUCCGUGGCACACUGGCUGUGGCUAGACUGCC [A4G A16U G17C A25C G27C] as the variant, how does the self-cleavage read?
Answer: 0

Question: For GGCGGAGCUCAACACUGCGUGGCAAAGUGACUGUGGCUAGACUGCC [A4G A16U G30A], which self-cleavage is on record?
Answer: 0.08

Question: Which self-cleavage does the source give for GGCCGAGCUCAACACAGCGUGCCAAAGUGGCUGUGGCUAGAAUGCC [A4C G22C C42A] here?
Answer: 0.1

Question: Which self-cleavage does the source give for GGCCGAGCUCAACACAGCGUGGCAAAGUGGCUGUGGCUACACUCCC [A4C G40C G44C] here?
Answer: 0.06

Question: For GGCGGAGCUCAACACAGCGUGGCAGGGUGGCUGUGGCUAGACUGCC [A4G A25G A26G], which self-cleavage is on record?
Answer: 0.2

Question: Which self-cleavage does the source give for GGCCGAGCCCAACACAGCGUGGCAAAGUGGCUGUGGCAAGACUGCC [A4C U9C U38A] here?
Answer: 0.02

Question: For GGCGGAGCUCAACACAGCGUGGCAUAGUGGCUGUGAGUAGACUGCC [A4G A25U G36A C37G], which self-cleavage is on record?
Answer: 0.12

Question: For GGCGGAGCUCAACACAGCGUGGCAAUGUGGCUGUAGCUAGACUGCC [A4G A26U G35A], which self-cleavage is on record?
Answer: 0.12

Question: With GGCGGAGCUCCACACCGCGUGGCAAAUUGGCUGUGGCUAGACUGCC [A4G A11C A16C G27U] as the variant, how does the self-cleavage read?
Answer: 0.02

Question: With GGCCGAGCUCAACACAGCGGGGCAAAGUGGCAGUGGCUAGACUGCC [A4C U20G U32A] as the variant, how does the self-cleavage read?
Answer: 0.05

Question: Which self-cleavage does the source give for GGCGGGGCUCAACAUAGCGUGCCAAAUUGGCUGUGGCUAGACUGCC [A4G A6G C15U G22C G27U] here?
Answer: 0.05

Question: With GGCGGAGCUCAACCCAGCGUGGCACAGUGGCUUUGGCUAGAUUGCC [A4G A14C A25C G33U C42U] as the variant, how does the self-cleavage read?
Answer: 0.07

Question: With GGCGGAGAUCAACACAGCGUGGCAAAGUGGCUGUCGCAAGUCUGCC [A4G C8A G35C U38A A41U] as the variant, how does the self-cleavage read?
Answer: 0.05

Question: Which self-cleavage does the source give for GGCGGAGCUCAACGGAGCGUUGCAAAGUGGCUGUGGCUAGACUGCC [A4G A14G C15G G21U] here?
Answer: 0.24

Question: For GGCGGAGCUCACCACAGCGUGGCAAAGUGGCUGUGGCUAUACUGCC [A4G A12C G40U], which self-cleavage is on record?
Answer: 0.03

Question: For GGCGGAGCUCAACACAGCGUGGCGAAGUGGCUGUUGCUAGACUGCC [A4G A24G G35U], which self-cleavage is on record?
Answer: 0.37

Question: With GGCGGAGCUCCUCACAGCGUGGCAAAGUGGCUGUGGCUAGACUGCC [A4G A11C A12U] as the variant, how does the self-cleavage read?
Answer: 0.01

Question: Which self-cleavage does the source give for GGCCGAGCUCAACACAGCUUGGCAAAGUGGCUGUGGCUAGGCUGCC [A4C G19U A41G] here?
Answer: 0

Question: Which self-cleavage does the source give for GGCGGCGCUCAACACAGCAUGGCAAAGUGGCUGUGGCUAGACUGCC [A4G A6C G19A] here?
Answer: 0.14

Question: Which self-cleavage does the source give for GGCGGAGGUCAACACAGGGUGGCAAAGUGGAUGUGGCUAGACUGCC [A4G C8G C18G C31A] here?
Answer: 0.09

Question: Which self-cleavage does the source give for GGCGGAGGUCAACACAAAGUGGCAAAGUGGCUGUGGCUAGACUGCC [A4G C8G G17A C18A] here?
Answer: 0.06

Question: Which self-cleavage does the source give for GGCGGAGCUCAACACAGCGUGGCCAAGUGGCUGUGGCUAGACUGCU [A4G A24C C46U] here?
Answer: 0.08

Question: For GGCCGAGCUCAACACAGCGUGACAAAGUGGCUGUGUCUAGAGUGCC [A4C G22A G36U C42G], which self-cleavage is on record?
Answer: 0

Question: Which self-cleavage does the source give for GGCGGUGCUCAACACAGCUUGGCAAAGUGGCUGUGGCUAGACUGCA [A4G A6U G19U C46A] here?
Answer: 0.32

Question: Which self-cleavage does the source give for GGCGGAGCUCUACACAGCGUGGCAAAGUGGCUGUGGAAAGACUGCC [A4G A11U C37A U38A] here?
Answer: 0.02

Question: For GGCCGAGCUCAACACAGCGUGGCAAAGUGUCUGAGGCUAGAUUGAC [A4C G30U U34A C42U C45A], which self-cleavage is on record?
Answer: 0.05

Question: With GGCGGAGCUCAACACUGCGUGGCUAAGUGGCUGUGGCUAGACUGCC [A4G A16U A24U] as the variant, how does the self-cleavage read?
Answer: 0.18

Question: For GGCGGAGAUCAACACAUCGUGGCAAAGUGGCUGUGGCUAUACUCCC [A4G C8A G17U G40U G44C], which self-cleavage is on record?
Answer: 0.06

Question: Which self-cleavage does the source give for GGCGGUGCUCAACACAGCGUGUCAAAGUGGCUGGGGCUACACUGUC [A4G A6U G22U U34G G40C C45U] here?
Answer: 0.13

Question: Which self-cleavage does the source give for GGCGGGGCUCAACACAGCGUGGCAAAGUGGCUGUGGCUAUACUGCA [A4G A6G G40U C46A] here?
Answer: 0.1

Question: For GGCGGAGCUCGACAUAGCGUGGCAAAGUGGCUGUGGCUAGAUUGCC [A4G A11G C15U C42U], which self-cleavage is on record?
Answer: 0.03

Question: With GGCCGAGCUCAACACAGCGUGGCAAAAUGGCUGUGGCUAGAAUGCA [A4C G27A C42A C46A] as the variant, how does the self-cleavage read?
Answer: 0.06

Question: With GGCGGAGCUCAACACAGCGUGGCAAUUUGGCUGUGGCUAGACUGCC [A4G A26U G27U] as the variant, how does the self-cleavage read?
Answer: 0.57
